Measurements published in article PMC4336329 (PLoS ONE, 2015).
The campaign covered roughly 310,000 compounds. About 14,000 (4.5%) showed an effect of 50% or more. The effect is printed as a negative number. This is one part of the list.

These compounds were tested against human ether-à-go-go-related gene (hERG) potassium channel (human, UniProt Q12809) (assay: primary screen, population patch clamp on CHO cells stably expressing hERG).
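Note: peak tail current of the secondary pulse compared with the same well before compound.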

Chain of human ether-à-go-go-related gene (hERG) potassium channel (Q12809 whole entry, looked up): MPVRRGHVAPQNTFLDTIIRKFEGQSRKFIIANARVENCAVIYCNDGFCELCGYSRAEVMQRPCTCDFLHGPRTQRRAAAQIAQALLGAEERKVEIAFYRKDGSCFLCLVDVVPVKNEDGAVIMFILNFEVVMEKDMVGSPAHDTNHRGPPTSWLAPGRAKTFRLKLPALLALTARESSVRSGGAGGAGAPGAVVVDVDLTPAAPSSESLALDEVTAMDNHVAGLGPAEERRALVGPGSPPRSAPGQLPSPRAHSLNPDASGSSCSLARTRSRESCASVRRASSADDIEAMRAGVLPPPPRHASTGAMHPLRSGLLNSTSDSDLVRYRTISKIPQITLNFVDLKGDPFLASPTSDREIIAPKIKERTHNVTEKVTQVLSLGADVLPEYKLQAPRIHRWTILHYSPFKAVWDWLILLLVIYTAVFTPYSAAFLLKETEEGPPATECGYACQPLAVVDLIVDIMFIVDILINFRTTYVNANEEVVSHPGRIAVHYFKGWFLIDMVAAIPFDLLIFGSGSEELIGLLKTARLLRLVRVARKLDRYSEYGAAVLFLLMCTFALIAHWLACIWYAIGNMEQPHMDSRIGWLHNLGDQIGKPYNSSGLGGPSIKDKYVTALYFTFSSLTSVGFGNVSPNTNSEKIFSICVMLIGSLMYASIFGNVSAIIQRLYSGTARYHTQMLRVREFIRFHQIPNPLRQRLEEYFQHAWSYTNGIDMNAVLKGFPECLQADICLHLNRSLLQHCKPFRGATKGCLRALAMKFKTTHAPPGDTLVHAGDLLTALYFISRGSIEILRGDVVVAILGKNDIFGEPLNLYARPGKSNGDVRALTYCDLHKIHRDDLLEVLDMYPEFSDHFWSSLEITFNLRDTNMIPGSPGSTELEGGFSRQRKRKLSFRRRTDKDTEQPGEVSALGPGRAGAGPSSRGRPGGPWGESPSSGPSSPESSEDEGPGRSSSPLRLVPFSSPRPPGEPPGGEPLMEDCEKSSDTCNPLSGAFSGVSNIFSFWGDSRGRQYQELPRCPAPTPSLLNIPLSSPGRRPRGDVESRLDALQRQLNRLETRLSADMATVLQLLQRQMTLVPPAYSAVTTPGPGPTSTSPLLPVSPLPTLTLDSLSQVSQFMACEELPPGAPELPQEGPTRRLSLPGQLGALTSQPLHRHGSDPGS

| Compound | hERG current change (%, negative = inhibition) at 10uM [%] |
| --- | --- |
| CC1CCN(C(=O)/C=C/c2ccc(C(C)(C)C)cc2)CC1 | -19.3 |
| C=C(C)Cn1c(N2CC(C)CC(C)C2)nc2c1c(=O)[nH]c(=O)n2C (stereo not shown) | 2.46 |
| CCOc1cc(NC(=S)NCCCN(C)C)c(OCC)cc1NC(=O)C1CC1 | 28.8 |
| Cc1ccc(/C=N/c2sc3c(c2C#N)CCC3)s1 | -8.29 |
| O=c1[nH]cc(-c2ccccc2)c(=O)[nH]1 | 26.7 |
| S=C(NCCc1ccccc1)NC1CCC(NC(=S)NCCc2ccccc2)CC1 (stereo not shown) | 17.1 |
| CC(=O)c1ccc(NC(=S)N2CC(C)CC(C)C2)cc1 (stereo not shown) | -11.4 |
| Oc1ccc(/C=N/n2c(COc3ccccc3)n[nH]c2=S)cc1O | 23 |
| O=C(N/N=C/C(Cl)=C/c1ccccc1)c1cnccn1 | -15 |
| O=C(Nc1ccc(S(=O)(=O)Nc2nccs2)cc1)c1ccccc1OC(F)F | 13.4 |
| COc1ccc(Cn2cccc(NC(=O)Nc3ccc(C#N)cc3)c2=O)cc1 | 4.81 |
| COc1ccc(C(C)=O)cc1COC(=O)c1ccc(C)c(S(=O)(=O)N2CCOCC2)c1 | -19.8 |
| O=C(COC(=O)c1cccnc1)Nc1cccc2ccccc12 | 12.7 |
| COc1ccc(-c2nnc(SC(C)C(=O)Nc3ccc4c(c3)OCCO4)o2)cc1 (stereo not shown) | -10.3 |
| C=CCCCCCCCCc1nc(=S)[nH][nH]1 | 9.32 |
| COc1ccccc1Cn1c(=O)c2ccccc2n2c(SCc3csc(C)n3)nnc12 | -6.34 |
| CCC1C(=O)NCCN1C(=O)CCc1nnc(CCc2ccc(OC)cc2)o1 (stereo not shown) | 21.9 |
| NC(=O)c1c(NC(=O)Cn2nc(C(=O)O)c3ccccc3c2=O)sc2c1CCCC2 | 6.32 |
| O=c1[nH]nc(-c2ccc(F)cc2)cc1Cc1ccc(F)cc1 | -12 |
| O=C(c1ccc(S(=O)(=O)N2CCCCC2)cc1)N1CCc2ccccc2C1 | -20.5 |
| Cn1c(N)c(C(=O)COC(=O)CSc2ccc(Cl)cc2)c(=O)n(C)c1=O | -61.2 |
| CCN(C(=O)c1cc2cc3ccc(C)cc3nc2o1)c1ccc(OC)cc1 | -4.02 |

| Compound | hERG current change (%, negative = inhibition) at 10uM [%] |
| --- | --- |
| Cc1cccc(Oc2c(C=O)c3ccccc3n2C)c1 | -14.2 |
| Cc1ccc(C(C)C)c(OCc2ccc(-c3nnco3)cc2)c1 | -14.1 |
| CN1CCc2c(sc(NC(=O)CS(=O)(=O)c3ccccc3)c2C(N)=O)C1.Cl | -23.4 |
| Cc1c(Cl)cccc1N1C(=O)CC(N(O)c2ccccc2)C1=O (stereo not shown) | 12.1 |
| CC1CCc2[nH]c3ccc(C(=O)N(C)CC(=O)Nc4ccccc4C(F)(F)F)cc3c2C1 (stereo not shown) | 4.13 |
| COCCN1C(=O)N(c2cccc(C)c2)C(=O)C1CC(=O)Nc1ccc(OC)cc1 (stereo not shown) | 11 |
| CNC(=S)N(Cc1cc2cc(OC)c(OC)cc2[nH]c1=O)C1CCCC1 | 20.7 |
| N/C(=N\N=C\c1ccco1)SC1CC(=O)N(c2ccccc2)C1=O (stereo not shown) | 17.1 |
| CC1(C(=O)NCC2CCCO2)Oc2cccnc2NC1=O (stereo not shown) | 5.86 |
| COC(=O)CN(C#N)c1nc(N(C)C)nc(N(C)C)n1 | -3.32 |
| Nc1c(N(Cc2ccccc2)C(=O)COc2cccc(Cl)c2)c(=O)[nH]c(=O)n1Cc1ccccc1 | -10.4 |
| O=C(NCCCN1CCCC1=O)c1ccc(NS(=O)(=O)c2ccc(F)cc2)cc1 | -13.9 |
| Cc1csc(NC(=O)CSc2nsc(SCC(=O)Nc3nc(C)cs3)c2C#N)n1 | 7.77 |
| CCN(CC)CCNC(=O)c1cc(Nc2ccc(OC)c(OC)c2)nc2ccccc12 | -23.8 |
| O=C(c1cccs1)n1nc(NCc2ccccc2)nc1NCc1ccccc1 | 10.5 |
| CCOC(=O)C1CCN(S(=O)(=O)c2ccc3c(c2)NC(=O)C(C)C(=O)N3)CC1 (stereo not shown) | 13.4 |
| CC(=O)c1c(C(C)=O)c(C)n(Cc2ccc3c(c2)OCO3)c1C | -9.41 |
| CC1(NC(=O)CN2CCN(c3cnn(-c4ccccc4)c(=O)c3Cl)CC2)CCS(=O)(=O)C1 (stereo not shown) | -39.5 |
| CC(=O)CCc1oc2ccc(NC(C)=O)cc2c1-c1ccc(C)o1 | -20.9 |
| O=C(CCC(=O)OCC(F)(F)C(F)F)Nc1ccccc1F | 37.7 |
| CCN1C(=O)c2cccc3c(S(=O)(=O)Nc4ccccc4)ccc1c23 | -2.82 |
| CC(C)CN(C(=O)COC(=O)C12CC3CC(CC(C3)C1)C2)c1c(N)n(Cc2ccccc2)c(=O)[nH]c1=O | 8.98 |

| Compound | hERG current change (%, negative = inhibition) at 10uM [%] |
| --- | --- |
| O=C(Nc1ccccc1)c1ccc(-c2ccccc2C(F)(F)F)o1 | -11.8 |
| O=C(NCCO)c1ccc2c3n(nc2c1)-c1ccc(Cl)cc1CO3 | -12.7 |
| CCC(c1nnc(SCC(=O)Nc2ccc(S(N)(=O)=O)cc2)n1Cc1ccccc1)N(C)C (stereo not shown) | 19.9 |
| O=[N+]([O-])c1cc(S(=O)(=O)N2CCCC2)ccc1SCCO | -23.6 |
| Cc1cc(-n2c(C)cc(C(=O)CSc3nnnn3-c3ccc(Cl)cc3)c2C)no1 | -3.04 |
| CCOP(=O)(OCC)c1nc(-c2cccc3ccccc23)oc1N1CCOCC1 | -17.8 |
| N#Cc1cn(-c2ccccc2)nc1-c1ccc2c(c1)OCCO2 | 11.8 |
| COc1ccc(Cc2nc(-c3ccncc3)no2)cc1 | 2.01 |
| O=C(CSc1nc2ccccc2s1)NC1CCCC1 | 6.24 |
| COC(=O)C1=C(C)NC(=O)CC1c1ccccc1F (stereo not shown) | -12.8 |
| Cc1ccc(C)c(CSc2nnc(-c3cccnc3)n2N)c1 | 29.1 |
| COC(=O)CSc1nnc(CNC(=O)c2ccc(OC)cc2OC)n1C | -6.24 |
| CSC1=NSC2=NC(=O)/C(=C\c3ccc(OC(=O)c4ccco4)cc3)C(=N)N12 | 9.54 |
| CCN1CCc2c(OCc3ccc(C(=O)OC)o3)cccc2C1=O | -11.7 |
| COc1ccc(-c2cnn(-c3ccccc3)c2N)cc1OC | 1.61 |
| Cc1ccc(S(=O)(=O)Nc2ncnc3ccccc23)cc1 | 9.77 |
| Cn1c(O)c(C=NC2CCN(Cc3ccccc3)CC2)c(=O)[nH]c1=O | -26.5 |
| CNC(=O)CN1C(=O)NC(Cc2c[nH]c3ccccc23)C1=O (stereo not shown) | -5.85 |
| FC(F)(F)c1cccc(NC(=S)NCc2ccc(Cl)cc2)c1 | 8.76 |
| Cc1ccc(C(=O)NC(C(=O)OCc2cn3cc(Cl)ccc3n2)C(C)C)cc1 (stereo not shown) | -37.9 |
| CN1C(=O)/C(=C\c2ccc(Br)s2)C(=O)NC1=S | 15.5 |
| CC(C)(C)c1nc(SCC(=O)NCc2cccs2)c2ccccc2n1 | -0.222 |

| Compound | hERG current change (%, negative = inhibition) at 10uM [%] |
| --- | --- |
| COCCCNC(=O)C1CCCN(S(=O)(=O)c2ccc(C)cc2)C1 (stereo not shown) | -12.9 |
| O=C(CN1C(=O)C(=O)c2ccccc21)NCCc1ccccc1 | 15.7 |
| CC(=O)c1cccc(S(=O)(=O)N(C)C2CCN(C)CC2)c1.Cl | -2.43 |
| Br.O=C(Cn1c(NCCCO)nc2ccccc21)c1cccs1 | -11.5 |
| CC(C)Cc1nnc(NC(=O)c2ccncc2)s1 | -13.2 |
| CCOc1ccc(NC(=O)N2CCC(c3ccc(C)cc3)C2)cc1 (stereo not shown) | 4.48 |
| CC(=O)N1CN2CN(C(C)=O)CC(C(=O)c3ccc([N+](=O)[O-])cc3)(C2)C1 | -34 |
| CC1=C(C(=O)OC(C)C)C(c2ccc(C)o2)NC(=O)N1 (stereo not shown) | -6.55 |
| CCCOc1ccccc1/C=C1/C(=O)ON=C1C | 20.7 |
| O=[N+]([O-])c1ccc(C2CCCC/C2=N/OCc2ccccc2F)c([N+](=O)[O-])c1 (stereo not shown) | 3.91 |
| COc1c(Br)cc(Br)cc1C(=O)O | 7.51 |
| O=C(c1cc(COc2ccc(F)cc2Cl)on1)N1CCN(C2CCCC2)CC1 | -61.4 |
| CCOC(=O)Nc1nnc(CCc2ccccc2)s1 | -4.48 |
| COc1ccccc1N1CCN(C(=O)Nc2ccc(F)c(Cl)c2)CC1 | -5.46 |
| CC(=O)N1c2ccc(S(=O)(=O)NCC3CCC(C(=O)Nc4ncccc4C)CC3)cc2CC1C (stereo not shown) | -5.43 |
| CN1c2cccc3cccc(c23)N(C)C1c1cccs1 | 3.73 |
| CC(=O)N1CCN(S(=O)(=O)c2ccc(C)cc2)C1c1ccc(N(C)C)cc1 (stereo not shown) | -10.1 |
| O=Cc1c(N2CCN(c3ccccc3)CC2)nc2ccccn2c1=O | -22.7 |
| COc1ccc(S(=O)(=O)N[C@H](C(=O)N2CC[C@@]3(O)CCCC[C@H]3C2)c2ccccc2)cc1 | -16.1 |
| N#Cc1c(N)nc(SCc2ccccc2)c(C#N)c1-c1ccco1 | -38.1 |
| COCCCNC(=O)/C(C#N)=C1\N=C(NC(=O)c2cccs2)c2ccccc21 | -6.61 |
| CCN(CC)C(=O)COC(=O)c1cc(-c2ccc(OC)cc2)nc2ccccc12 | -0.253 |
